According to PubChem BioAssay AID686979 (National Center for Advancing Translational Sciences (NCATS), 2013):
The whole screen tested about 420,000 compounds, of which about 50,000 (12%) were called active. The shares of active, inactive and inconclusive entries below differ from those in the screen. The call rests on the fitted dose curve; in most records, active means well fitted inhibition curve with a large enough effect; inconclusive means small, poorly fitted or top-dose-only effect; inactive means flat fitted curve, though single readings scatter. No potency is given beside an inconclusive call; the fits are too rough.
On the % scale 0 is the no-effect control and ±100 the full control effect; potency means the concentration at half of the fitted maximal effect; tags describe the fitted curve by direction and shape.

Test: qHTS for Inhibitors of human tyrosyl-DNA phosphodiesterase 1 (TDP1): qHTS in cells in presence of CPT; further: nearly all actives have a fitted effect of over 55% in size
Details: chicken DT40 Tdp1-/-;hTDP1 cells + 20 nM CPT, ATP luminescence, 48 h; activity change, negative = growth inhibition: at 46.2 µM (top of the series) unless noted
In short: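 Cell growth measured by CellTiter-Glo luminescence after a minimum 48 h, 37 C compound exposure with 20 nM CPT in Tdp1-knockout DT40 cells stably expressing hTDP1, seeded 400/well; qHTS titration format.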
For Cc1cccc(CN2CCN(C3CN(Cc4cn(Cc5ccccc5C(F)(F)F)nn4)S(=O)(=O)C3)CC2)c1 (stereo not drawn), the Potency was inconclusive [inhibitor, single point]. In the case of CCOc1cccc2sc(N(CCN(CC)CC)C(=O)c3ccc(S(=O)(=O)N4CCCCC4)cc3)nc12, the “activity change, negative = growth inhibition” value is reported as inactive: -0.185%. With Cc1ccc(S(=O)(=O)c2nnn3c2nc(N2CCC(C)CC2)c2cc(Cl)ccc23)cc1C the Potency was inconclusive [inhibitor, single point]. For Cc1ccccc1NC(=O)CSc1n[nH]c(-c2ccccn2)n1, the Potency was active: 18.4 µM. For CCC1C(=O)CC(c2ccc([N+](=O)[O-])cc2)NC1c1ccc([N+](=O)[O-])cc1 (stereo not drawn), the Potency was inconclusive [inhibitor, partial curve]. For Cc1ccc(-n2nc3c(c2NC(=O)c2c(-c4ccccc4Cl)noc2C)CSC3)cc1, the Potency was active: 25.9 µM. In the case of COc1ccc(N(C(=O)/C=C/c2ccc(OC)c(OC)c2)C2=CC3CCC(C2)N3C)cc1 (stereo not drawn), the “activity change, negative = growth inhibition” value is reported as inactive: -0.117%. In the case of COc1ccc(S(=O)(=O)N2CCC(C(=O)NCCC(=O)NCc3ccccn3)CC2)cc1, the “activity change, negative = growth inhibition” value is reported as inactive: 11.5%. For COc1ccccc1C(=O)OCc1cc(=O)n2nc(C3CCCCC3)sc2n1, the “activity change, negative = growth inhibition” value was inactive: -9.65%. In the case of Cc1cccc(NC(=O)CN2C(=O)c3ccccc3Sc3ncccc32)c1C, the Potency is reported as inconclusive [inhibitor, partial curve]. In the case of O=C(NCCCO)c1cc2ccccc2[nH]1, the “activity change, negative = growth inhibition” value is reported as inactive: -9.37%. With O=[N+]([O-])c1ccc(CN2CCN(c3ccc(Cl)cc3)CC2)o1 the “activity change, negative = growth inhibition” value was inactive: -25.4%. In the case of COc1ccc(C(CNC(=O)c2ccc(OCc3cscn3)cc2)N2CCCC2)cc1 (stereo not drawn), the “activity change, negative = growth inhibition” value is reported as inactive: -10.8%. With NC(=S)N=Nc1c(O)[nH]c2c(Cl)cc(Cl)cc12 the Potency was active: 16.4 µM. In the case of CCn1c(NCc2ccc(OC)c(OC)c2)nc2ccccc21, the Potency is reported as inconclusive [inhibitor, single point]. In the case of O=C(NC(c1ccc(-c2ccccc2)cc1)c1cnccn1)C1CCN(CCOc2ccc(Cl)cc2Cl)CC1 (stereo not drawn), the Potency is reported as active: 16.4 µM. In the case of CC(C)(C)C1=CC(O)(c2ccccc2)C=C(C(C)(C)C)C1=O, the Potency is reported as inconclusive [inhibitor, single point]. With Cc1ccc(C)c(NC(=S)N2CCC(C(=O)c3ccc(F)cc3)CC2)c1 the “activity change, negative = growth inhibition” value was inactive: -1.27%. In the case of CN(C)c1nc2cc(Cl)ccc2cc1CN(Cc1ccc2c(c1)OCO2)C(=O)c1ccoc1, the activity change, negative = growth inhibition is reported as inactive: 15.2% [at 9.04 µM]. For O=S(=O)(NCc1ccc(Cl)cc1Cl)c1cccs1, the Potency was inconclusive [inhibitor, single point]. In the case of Cc1ccc(Cl)cc1N1CCN(CCCNc2ncnc3onc(-c4ccc(Cl)cc4)c23)CC1, the Potency is reported as inconclusive [inhibitor, single point]. For CSC[C@@H]1NC(=S)N(c2ccc(C)cc2)C1=O, the Potency was active: 5.17 µM. In the case of CCOC(=O)c1cc(CC)sc1NC(=O)C(c1ccccc1)c1ccccc1, the Potency is reported as inconclusive [inhibitor, single point]. With O=C(NCc1ccccc1)C1c2ccccc2OCC(=O)N1Cc1ccco1 (stereo not drawn) the “activity change, negative = growth inhibition” value was inactive: -13.1%. For O=c1c2ccccc2nc2n1C(CSCc1ccc(Cl)cc1Cl)CS2 (stereo not drawn), the Potency was active: 9.2 µM. For CCCN(CC(=O)Nc1ccccc1C)C(=O)c1oc2ccc(OCC)cc2c1C, the Potency was inconclusive [inhibitor, single point]. With Cc1cc(C)nc(NC(=NCCc2c[nH]c3ccccc23)NC(=O)Nc2cccc([N+](=O)[O-])c2)n1 the Potency was active: 13 µM. For CCOc1ccc(Cl)cc1/C=N/NC(=O)CNC(=O)c1ccccc1, the “activity change, negative = growth inhibition” value was inactive: -12.3%. With C/C(=N\NC(N)=S)C1=CCC2C3CC[C@H]4CC(O)CC[C@]4(C)C3CC[C@]12C (stereo partly drawn) the Potency was active: 18.4 µM. With COc1ccc(CCNC(=S)NCCc2c[nH]c3ccccc23)cc1 the Potency was inconclusive [inhibitor, single point]. For CC1(Oc2cccnc2Cl)CCN(Cc2ccc(OC(F)(F)F)cc2)C1 (stereo not drawn), the Potency was active: 20.6 µM. For CCn1nc(C)c(CN2CCC(n3nccc3NC(=O)c3ccc4c(c3)OCO4)CC2)c1C, the “activity change, negative = growth inhibition” value was inactive: -1.43%. With CC1CCCN(c2ccc(C(=O)NCc3cccs3)cn2)C1 (stereo not drawn) the Potency was inconclusive [inhibitor, single point]. For COc1ccc(C(C(=O)NC(C)(C)C)N(C(=O)CCC(=O)Nc2cc(C)on2)c2cc(C)cc(C)c2)cc1 (stereo not drawn), the Potency was inconclusive [inhibitor, single point]. In the case of CC(C)CC(=O)Nc1ccc(C(=O)COc2ccc(-c3nnco3)cc2)cc1, the Potency is reported as inconclusive [inhibitor, single point]. In the case of Cc1cc(NC(=O)c2cnn3c(C(F)F)cc(-c4ccccc4)nc23)no1, the Potency is reported as active: 14.6 µM. In the case of COc1cccc(CNC(=O)CCNS(=O)(=O)c2ccc3c(c2)CC(C)N3C(C)=O)c1 (stereo not drawn), the Potency is reported as inconclusive [inhibitor, single point]. With CC1CCCCN1CCCNC(=O)CCCN1C(=O)c2cccnc2Sc2ccccc21 (stereo not drawn) the “activity change, negative = growth inhibition” value was inactive: -6.5%. In the case of CN(C)CCN(C(=O)c1ccc2ccccc2c1)c1nc2cc3c(cc2s1)OCCO3, the Potency is reported as inconclusive [inhibitor, single point]. For Cc1ccnc(NS(=O)(=O)c2ccc(NC(=O)CSc3nc(-c4ccccc4)cc(=O)[nH]3)cc2)n1, the “activity change, negative = growth inhibition” value was inactive: -11%. With N=c1oc2c3c4c(cc2cc1C(=O)Nc1ccccc1)CCCN4CCC3 the Potency was inconclusive [inhibitor, single point]. For COc1ccc(C(=O)NC(=S)Nc2cccc(S(=O)(=O)N3CCOCC3)c2)cc1, the Potency was active: 5.8 µM. For Cc1cc(C)n(CCCNC(=O)c2ccc(C)o2)n1, the “activity change, negative = growth inhibition” value was inactive: -0.539%. With COc1ccc(CNC(=O)CN(C(=O)CCC(=O)Nc2nccs2)c2ccc3c(c2)OCO3)cc1 the “activity change, negative = growth inhibition” value was inactive: -18.3%. With O=[N+]([O-])c1ccc(N2CCN(c3ccc(F)cc3)CC2)nc1 the Potency was inconclusive [inhibitor, partial curve]. For Cn1nc(C(=O)Nc2nnc(C3CC3)s2)c2ccccc2c1=O, the Potency was inconclusive [inhibitor, single point]. In the case of O=C1c2cccnc2C(Nc2ccc(Cl)cc2)N1Cc1cccs1 (stereo not drawn), the Potency is reported as inconclusive [inhibitor, single point]. For COc1ccc(-c2noc(N3CCC(C(=O)NCc4ccc(F)cc4)CC3)n2)cc1, the “activity change, negative = growth inhibition” value was inactive: -27.8%. For CCC(Oc1ccccc1)C(=O)NC1CCSC1=O (stereo not drawn), the “activity change, negative = growth inhibition” value was inactive: 0.78%. For N=c1n(N)c2ccccc2n1CC(=O)c1ccc(Br)cc1, the Potency was active: 23.1 µM. In the case of CCCCCCOc1ccc(N2C(=O)CC(N3CCN(CCN=CC4C(=O)CC(C)(C)CC4=O)CC3)C2=O)cc1 (stereo not drawn), the Potency is reported as inconclusive [inhibitor, single point]. In the case of O=C(CCNS(=O)(=O)c1ccccc1Cl)N1CCN(c2ccccn2)CC1, the “activity change, negative = growth inhibition” value is reported as inactive: -5.03%. With CCOC(=O)c1cc(-c2ccccc2)n(CCC(=O)Nc2cc(OCC)ccc2OCC)c1C the Potency was active: 16.4 µM. In the case of CN(C)S(=O)(=O)c1cccc(NC(=O)NCCCl)c1, the “activity change, negative = growth inhibition” value is reported as inactive: -9.86%. In the case of C(COC1CC2CC1C1C2CC2OC21)OC1CC2CC1C1C2CC2OC21 (stereo not drawn), the activity change, negative = growth inhibition is reported as inconclusive: -33.3% [inhibitor]. With CCCc1c(C(=O)Nc2ccc(F)cc2F)cnn1-c1ccccc1 the Potency was inconclusive [inhibitor, single point]. With Cc1ccc(C)c(OCCC(=O)OCC(=O)N2CCN(S(=O)(=O)c3ccc(Cl)cc3)CC2)c1 the Potency was inconclusive [inhibitor, single point]. For Cc1[nH]c2ccc(-c3nnc(SCC(=O)c4ccc(F)cc4)o3)cc2c1C, the Potency was inconclusive [inhibitor, full curve]. In the case of CC(OC(=O)/C=C/c1ccccc1)C(=O)Nc1cccc(C#N)c1 (stereo not drawn), the Potency is reported as active: 16.4 µM. With O=C(COc1ccc(Br)cc1)N1CCC(c2ccccc2)C1 (stereo not drawn) the Potency was inconclusive [inhibitor, single point]. In the case of Cc1cc(S(=O)(=O)Nc2ccc(C(=O)NCCN3CCOCC3)cc2)ccc1F, the “activity change, negative = growth inhibition” value is reported as inactive: -29.3%. For CCN(CC)S(=O)(=O)c1ccc(N2CCCCC2)c(NC(=O)/C=C/c2cc(OC)c(OC)c(OC)c2)c1, the Potency was inconclusive [inhibitor, partial curve]. For COCCn1nnnc1C(c1cc2cccc(C)c2[nH]c1=O)N1CCN(c2ccccc2F)CC1 (stereo not drawn), the Potency was inconclusive [inhibitor, single point]. With COc1ccc(CCn2c3c(c(=O)[nH]c2=S)CN(CC(C)C)CN3)cc1OC the Potency was inconclusive [inhibitor, single point]. In the case of Cc1cc[n+](-c2nc3ccccc3nc2[N-]S(=O)(=O)c2cccs2)cc1C, the “activity change, negative = growth inhibition” value is reported as inactive: -21.1%. For Cc1nc(-c2ccccn2)sc1C(=O)Nc1ccc(F)cc1, the activity change, negative = growth inhibition was inconclusive: -32.5% [inhibitor]. With O=S(=O)(O)O the “activity change, negative = growth inhibition” value was inactive: 0.581%. With O=C(NCc1ccc2[nH]c3c(c2c1)CCCC3)c1ccc(S(=O)(=O)N2CCCC2)cc1 the activity change, negative = growth inhibition was inconclusive: -30.8% [inhibitor]. With CCOC(=O)[C@]12CCC=C1N(Cc1ccccc1)C(=O)[C@H](CC(=O)NCc1cccs1)C2 the Potency was inconclusive [inhibitor, single point]. With COc1ccccc1CN(C)C(=O)c1cc(C)nc2ccccc12 the Potency was active: 16.4 µM. In the case of CCOC(=O)C1CCN(S(=O)(=O)c2cc(Br)cc3c2N(C(C)=O)C(C)C3)CC1 (stereo not drawn), the Potency is reported as inconclusive [inhibitor, single point]. For Cc1ccc(S(=O)(=O)N2CCN(c3nc4ccccc4nc3-n3nc(C)cc3C)CC2)cc1, the Potency was inconclusive [inhibitor, single point]. In the case of CCn1c2c(c3cc(C(=O)O)ccc31)CCCC2=O, the Potency is reported as inconclusive [inhibitor, single point].
